{
  "source": "PubChem BioAssay AID588579",
  "about": "(National Center for Advancing Translational Sciences (NCATS), 2011)",
  "note": "About 2,200 (0.55%) of roughly 400,000 compounds were called active. The inconclusive results got no clear call from the source; some entries with a clear call stand among them for comparison. The call rests on the fitted dose curve; in most records, active means well fitted inhibition curve with a large enough effect; inconclusive means small, poorly fitted or top-dose-only effect, or another doubt; inactive means no such curve, though single readings can be large or run the other way. A potency beside an inconclusive call is a rough fit, not a confirmed value. On the % scale 0 is the no-effect control and ±100 the full control effect; potency means the concentration at half of the fitted maximal effect; tags describe the fitted curve by direction and shape.",
  "data": [
    {"molecular_target": "DNA polymerase kappa (Homo sapiens) (UniProt Q9UBT6)", "sequence (Q9UBT6 whole entry, looked up)": "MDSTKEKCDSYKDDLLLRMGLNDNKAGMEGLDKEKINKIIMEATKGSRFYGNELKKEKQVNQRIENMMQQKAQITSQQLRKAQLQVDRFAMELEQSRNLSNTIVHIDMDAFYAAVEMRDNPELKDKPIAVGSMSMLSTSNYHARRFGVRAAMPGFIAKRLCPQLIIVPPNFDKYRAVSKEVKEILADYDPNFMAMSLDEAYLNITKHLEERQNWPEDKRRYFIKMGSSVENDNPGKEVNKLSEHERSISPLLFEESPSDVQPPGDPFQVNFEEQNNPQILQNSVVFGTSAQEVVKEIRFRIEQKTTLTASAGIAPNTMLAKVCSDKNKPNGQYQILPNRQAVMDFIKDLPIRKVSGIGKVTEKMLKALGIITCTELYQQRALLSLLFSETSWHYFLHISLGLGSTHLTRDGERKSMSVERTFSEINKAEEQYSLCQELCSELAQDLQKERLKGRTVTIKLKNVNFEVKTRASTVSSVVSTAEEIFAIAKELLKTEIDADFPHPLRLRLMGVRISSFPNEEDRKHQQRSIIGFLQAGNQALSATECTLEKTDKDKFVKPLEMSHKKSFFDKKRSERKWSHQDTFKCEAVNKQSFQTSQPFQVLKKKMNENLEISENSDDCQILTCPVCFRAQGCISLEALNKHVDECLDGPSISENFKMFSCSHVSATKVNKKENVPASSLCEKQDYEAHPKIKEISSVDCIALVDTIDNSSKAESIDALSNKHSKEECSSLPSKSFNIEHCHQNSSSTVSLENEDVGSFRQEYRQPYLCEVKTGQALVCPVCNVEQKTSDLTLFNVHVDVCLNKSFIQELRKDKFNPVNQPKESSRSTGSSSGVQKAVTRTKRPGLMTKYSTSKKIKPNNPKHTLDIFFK", "experiment": "qHTS for Inhibitors of Polymerase Kappa", "conditions": "purified Pol kappa, fluorescent DNA synthesis assay, 10 min; series mostly up to 107 µM; activity, negative = inhibition: at the top concentration", "method": "The processing and repair of DNA interstrand crosslinks (ICL) in eukaryotic cells are extremely complex, potentially involving multiple DNA repair and damage tolerance pathways, including homologous recombination, nucleotide excision repair, translesion synthesis (TLS), and cell cycle checkpoints.\nTo that end, in a collaboration between the Oregon Health & Science University and the NIH Chemical Genomics Center a 1536-well high-throughput screen was developed. This fluorescent screen was assayed against the NIH Molecular Libraries Small Molecule Repository (MLSMR) to discover inhibitors of Pol Kappa.\nNIH Chemical Genomics Center [NCGC]\nNIH Molecular Libraries Probe Centers Network [MLPCN]\nAssay Submitter (PI): Stephen Lloyd, Oregon Health & Science University\nThree microliters of reagents (buffer in column 3 and 4 as negative control and 10 nM Pol kappa in columns 1, 2, and 5-48) were dispensed into a 1536-well black solid-bottom plate. Compounds (23 nL) were transferred via Kalypsys pin tool equipped with 1536-pin array. The plates were then incubated for 15 min at room temperature, and 1 uL substrate (50 nM final concentration) were then added to start the reaction and kinetically read twice at 0 min and 10 min on the Viewlux reader", "values": [
      {"smiles": "CCCc1cc(=O)oc2cc(OCC(=O)NC(Cc3c[nH]c4ccc(O)cc34)C(=O)O)c(Cl)cc12", "note": "(configuration not stated)", "Potency": "inconclusive: 70.8 µM [inhibitor, single point]"},
      {"smiles": "CNC(=O)CSc1cn(CC(=O)N2CCCCCC2)c2ccccc12", "Potency": "inconclusive: 100 µM [inhibitor, partial curve, poor fit]"},
      {"smiles": "COC(=O)C(C)N1C(=O)S/C(=C\\c2ccc(-c3ccc(C(=O)O)cc3C)o2)C1=O", "note": "(configuration not stated)", "Potency": "active: 31.6 µM"},
      {"smiles": "S=C(NCCCc1cnc[nH]1)NCCCN(Cc1ccc(Cl)c(Cl)c1)c1ccc(Br)cn1", "Potency": "inconclusive: 39.8 µM [inhibitor, partial curve, poor fit]"},
      {"smiles": "Cc1cc2c3c(c1)C1(C(=O)N3C(C)(C)CC2C)C(C#N)=C(N)Oc2n[nH]c(C)c21", "note": "(configuration not stated)", "Potency": "inconclusive: 89.1 µM [inhibitor, single point]"},
      {"smiles": "O=C1OC(c2ccc3c(c2)OCO3)=N/C1=C\\c1ccc(C(=O)O)cc1", "Potency": "inconclusive: 56.2 µM [inhibitor, partial curve, poor fit]"},
      {"smiles": "COc1ccc(Cl)cc1NC(=O)N(C)CCc1c(C)nn(C)c1C", "activity, negative = inhibition": "inactive: -4.27% [at 60.1 µM]"},
      {"smiles": "NCC1CCC(N)C(O[C@@H]2C(O)[C@H](O[C@H]3OC(CO)C(O)C(N)C3O)[C@@H](N)C[C@H]2N)O1", "note": "(some centres not stated)", "activity, negative = inhibition": "inactive: -3.42% [at 60.1 µM]"},
      {"smiles": "CC(C)Oc1cccc(C(=O)C2CCCN(C(=O)c3csnn3)C2)c1", "note": "(configuration not stated)", "Potency": "inconclusive: 89.1 µM [inhibitor, single point]"},
      {"smiles": "CC(C)CC1Nc2ccc(C(=O)NCCCN3CCOCC3)cc2NC1=O", "note": "(configuration not stated)", "Potency": "inconclusive: 89.1 µM [inhibitor, partial curve, poor fit]"},
      {"smiles": "COc1cc(/C=C/C(=O)O)cc(S(=O)(=O)Nc2ccc3nc(C)sc3c2)c1OC", "Potency": "inconclusive: 100 µM [inhibitor, partial curve, poor fit]"},
      {"smiles": "O=C(O)CSc1nc2sc3c(c2c(=O)n1-c1ccccc1)CCC3", "Potency": "inconclusive: 89.1 µM [inhibitor, partial curve, poor fit]"},
      {"smiles": "O=C(Nc1cc(C2CC2)nn1-c1ccccc1)c1ccc(F)cc1", "Potency": "inconclusive: 89.1 µM [inhibitor, partial curve, poor fit]"},
      {"smiles": "O=C1NCN(c2ccccc2)C12CCN(CCCC(c1ccc(F)cc1)c1ccc(F)cc1)CC2", "Potency": "inconclusive: 29.9 µM [inhibitor, single point]"},
      {"smiles": "CCOc1ccc(C(=O)c2ccc(OC)c(O)c2O)cc1", "Potency": "active: 12.6 µM"},
      {"smiles": "CCOc1ccc(S(=O)(=O)Nc2cc(NS(=O)(=O)c3ccc(OCC)cc3)cc(C(=O)O)c2)cc1", "Potency": "active: 79.4 µM"},
      {"smiles": "Cc1ccccc1CN1CCN(CC(=O)NC(C)c2ccccc2)CC1", "note": "(configuration not stated)", "Potency": "inconclusive: 89.1 µM [inhibitor, single point]"},
      {"smiles": "COc1cc(-c2nnc(SCc3cc(=O)oc4cc(O)c(O)cc34)o2)cc(OC)c1OC", "Potency": "active: 1.12 µM"},
      {"smiles": "Cc1ccc(NC(=O)CN2C(=O)N/C(=C/c3cc(C)n(-c4cccc(C(=O)O)c4)c3C)C2=O)cc1", "Potency": "inconclusive: 89.1 µM [inhibitor, single point]"},
      {"smiles": "Cn1c(=O)n(CC(=O)NCC2CCCO2)c(=O)c2c3c(sc21)COC(C)(C)C3", "note": "(configuration not stated)", "activity, negative = inhibition": "inactive: 0.542%"},
      {"smiles": "Cc1ccc2oc(=O)c(S(=O)(=O)c3ccc(C(C)(C)C)cc3)cc2c1", "activity, negative = inhibition": "inactive: -2.89%"},
      {"smiles": "CC(C)c1ccc(NC(=O)CSc2nc3ccsc3c(=O)n2Cc2ccc(C(=O)O)cc2)cc1", "Potency": "inconclusive: 89.1 µM [inhibitor, partial curve, poor fit]"},
      {"smiles": "C[N+]1(CC(=O)c2ccc(Cl)cc2)CCOCC1", "Potency": "inconclusive: 100 µM [inhibitor, single point]"},
      {"smiles": "CCOc1ccc(Nc2nc3c(S(=O)(=O)c4ccc(C(C)C)cc4)nnn3c3ccsc23)cc1", "Potency": "inconclusive: 100 µM [inhibitor, single point]"},
      {"smiles": "CCNC(=S)/N=C(\\N)Nc1nc(C)c2cc(C)ccc2n1", "Potency": "inconclusive: 25.1 µM [inhibitor, partial curve, poor fit]"},
      {"smiles": "CCOc1ncccc1C(=O)OC(C)C(=O)NC(=O)NC1CCCCC1", "note": "(configuration not stated)", "Potency": "inconclusive: 89.1 µM [inhibitor, single point]"},
      {"smiles": "COc1ccc(-c2nc(S(=O)(=O)c3ccc(Cl)cc3)c(NCc3ccccc3)o2)cc1", "activity, negative = inhibition": "inactive: 2.26%"},
      {"smiles": "CCn1c(SCc2nc(-c3ccc(OC)c(OC)c3)no2)nnc1-c1cccs1", "activity, negative = inhibition": "inactive: -10.6%"},
      {"smiles": "CC(C)(C)C1CCc2oc3ccc(NS(=O)(=O)c4ccc(C(=O)O)cc4)cc3c2C1", "note": "(configuration not stated)", "Potency": "inconclusive: 79.4 µM [inhibitor, partial curve, poor fit]"},
      {"smiles": "CC(=O)c1ccc(S(=O)(=O)NCCC(=O)NC(C)c2ccncc2)cc1", "note": "(configuration not stated)", "Potency": "inconclusive: 89.1 µM [inhibitor, partial curve, poor fit]"},
      {"smiles": "O=C(Nc1nc2c(F)cc(F)cc2s1)C1CC(=O)N(Cc2ccco2)C1", "note": "(configuration not stated)", "Potency": "inconclusive: 70.8 µM [inhibitor, partial curve, poor fit]"},
      {"smiles": "CCN=c1scc(C)n1/N=C/c1ccc(O)c(O)c1O", "Potency": "active: 22.4 µM"},
      {"smiles": "O=C(O)C(O)c1ccco1", "note": "(configuration not stated)", "Potency": "active: 20 µM"},
      {"smiles": "Cc1cc(S(=O)(=O)C(CNC(=O)c2ccc(F)c(F)c2)c2cccs2)ccc1F", "note": "(configuration not stated)", "activity, negative = inhibition": "inactive: -5.21% [at 60.1 µM]"},
      {"smiles": "Cc1cc(N)c2cc(NC(=O)Nc3ccc4nc(C)cc(N)c4c3)ccc2n1", "Potency": "active: 6.31 µM"},
      {"smiles": "CCCc1ccc(O)c(N=Cc2cc(Br)cc(OCC)c2O)c1", "activity, negative = inhibition": "inactive: -24%"},
      {"smiles": "CCC(=O)Nc1ccc(C(=O)Cn2ncc(Cl)c(Cl)c2=O)cc1", "Potency": "inconclusive: 89.1 µM [inhibitor, single point]"},
      {"smiles": "CCn1c2ccccc2c2cc(NC(C)=O)ccc21", "activity, negative = inhibition": "inactive: -7.26%"},
      {"smiles": "CCOc1ccc(-c2ccc(/C=C3/C(=N)N4C(C)=CSC4=NC3=O)o2)c([N+](=O)[O-])c1", "Potency": "inconclusive: 89.1 µM [inhibitor, single point]"},
      {"smiles": "Cc1ccccc1Nc1nnc(SCC(=O)NC(=O)NCc2ccco2)s1", "Potency": "inconclusive: 89.1 µM [inhibitor, single point]"},
      {"smiles": "COc1ccc(C)cc1NC(=O)C1CCN(S(=O)(=O)c2cc(Br)cc3c2N(C(C)=O)CC3)CC1", "activity, negative = inhibition": "inactive: -0.852%"},
      {"smiles": "C[n+]1ccc(/C=C/c2cc[n+](C)c3ccccc23)c2ccccc21", "Potency": "inconclusive: 25.1 µM [inhibitor, partial curve, poor fit]"}
    ]}
  ]
}
